According to PubChem BioAssay AID720709 (National Center for Advancing Translational Sciences (NCATS), 2013):
About 520 (0.14%) of roughly 360,000 compounds were called active. This list was built around the results that the source calls inconclusive (neither active nor inactive); the mix of calls is not that of the screen. The call rests on the fitted dose curve; in most records, active means well fitted inhibition curve with a large enough effect; inconclusive means small, poorly fitted or top-dose-only effect; inactive means no such curve, though single readings can be large or run the other way. Potencies of inconclusive entries are left out as doubtful fits.

These molecules were tested against Rap guanine nucleotide exchange factor 3 (Homo sapiens) (UniProt O95398) (assay: qHTS for Antagonist of cAMP-regulated guanine nucleotide exchange factor 3 (EPAC1): primary screen). Conditions: EPAC1 GEF assay, Rap1b-BODIPY-GDP exchange fluorescence; activity change, negative = inhibition: at 115 µM (top of the series).
Further: nearly all actives have a fitted effect of over 50% in size.
Potency means the concentration at half of the fitted maximal effect; tags describe the fitted curve by direction and shape.
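Wherever activity change, negative = inhibition is given: plate controls were vehicle for no effect and positive control for full effect.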

Chain of UniProt O95398 (O95398 whole entry, looked up): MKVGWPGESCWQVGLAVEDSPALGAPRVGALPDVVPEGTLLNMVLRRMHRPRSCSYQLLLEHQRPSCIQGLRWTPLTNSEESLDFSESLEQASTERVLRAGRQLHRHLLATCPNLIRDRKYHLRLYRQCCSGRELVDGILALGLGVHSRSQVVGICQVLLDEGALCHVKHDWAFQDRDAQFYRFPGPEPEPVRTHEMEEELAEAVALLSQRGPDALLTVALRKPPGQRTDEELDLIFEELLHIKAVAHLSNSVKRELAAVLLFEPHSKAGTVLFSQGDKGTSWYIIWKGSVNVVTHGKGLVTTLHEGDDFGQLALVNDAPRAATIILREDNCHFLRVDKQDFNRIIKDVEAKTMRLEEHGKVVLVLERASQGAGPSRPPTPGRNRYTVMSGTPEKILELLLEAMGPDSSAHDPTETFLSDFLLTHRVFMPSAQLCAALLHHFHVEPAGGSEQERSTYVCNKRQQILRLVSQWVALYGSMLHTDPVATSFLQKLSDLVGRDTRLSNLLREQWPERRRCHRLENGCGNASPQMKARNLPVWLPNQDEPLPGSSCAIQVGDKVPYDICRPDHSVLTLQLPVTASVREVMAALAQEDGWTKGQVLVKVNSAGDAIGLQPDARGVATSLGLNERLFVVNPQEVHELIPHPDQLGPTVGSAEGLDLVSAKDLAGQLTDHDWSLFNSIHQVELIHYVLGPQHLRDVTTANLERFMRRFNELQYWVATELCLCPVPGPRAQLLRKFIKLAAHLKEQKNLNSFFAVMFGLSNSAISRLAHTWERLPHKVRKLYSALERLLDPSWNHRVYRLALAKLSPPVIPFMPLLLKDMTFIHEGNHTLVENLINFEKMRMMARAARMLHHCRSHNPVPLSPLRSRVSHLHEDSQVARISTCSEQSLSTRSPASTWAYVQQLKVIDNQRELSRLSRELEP

Compound | Potency | activity change, negative = inhibition
Cc1ccccc1-n1c(-c2csc(C)c2C)n[nH]c1=S | inconclusive [inhibitor, partial curve, poor fit] | –
CCN1CCc2nc3ccccc3c(C(=O)Nc3ccc(C#N)cc3)c2C1 | inconclusive [inhibitor, partial curve] | –
COc1ccc(-c2nn(-c3ccccc3)cc2CNC[C@H]2O[C@@H](n3cnc4c(N)ncnc43)[C@H](O)[C@@H]2O)cc1 | inconclusive [inhibitor, single point] | –
N#Cc1ccc(-c2nc3ccc(Br)cn3c2Cc2ccccc2)cc1 | – | inactive: 8.95%
CCOc1ccc2[nH]c3c(N4CCc5ccccc5C4)ncnc3c2c1 | inconclusive [inhibitor, full curve, poor fit] | –
COc1ccc(CNC(=O)Nc2cccc(C(F)(F)F)c2)cc1OC | inconclusive [inhibitor, full curve, poor fit] | –
N#CCCN1CCN(S(=O)(=O)c2ccc3c(c2)OCCCO3)CC1 | – | inactive: -2.66%
CCc1ccc(NC(=O)CSc2ccc(-c3cccnc3)nn2)cc1 | inconclusive [inhibitor, full curve, poor fit] | –
N/C(=N\OC(=O)c1ccc(Cl)cc1Cl)c1cccnc1 | – | inactive: -12.2%
Cc1cc(C(=O)NCc2ccc(Cl)cc2)n(-c2ccccc2)n1 | inconclusive [inhibitor, single point] | –
Cc1cc(C)nc(SCC(=O)OCC(=O)Nc2nc3ccccc3s2)n1 | inconclusive [inhibitor, partial curve] | –
CC(C)(CNC(=O)/C=C/c1ccc(F)cc1)CNC(=O)/C=C/c1ccc(F)cc1 | inconclusive [inhibitor, single point] | –
COc1ccc(CCNC(=O)c2nn(C)cc2Cl)cc1 | – | inactive: 3.74%
Cc1c(Cl)cccc1NC(=S)N1CCCCCC1 | inconclusive [inhibitor, partial curve, poor fit] | –
Oc1ccc(NCc2cccc(OCc3ccc(F)cc3)c2)cc1 | active: 44.7 µM | –
O=S(=O)(NC1CCCCC1)c1cccc2nsnc12 | inconclusive [inhibitor, partial curve] | –
N/C(=N\OC(=O)CCc1ccccc1)c1ccccc1Cl | inconclusive [inhibitor, partial curve] | –
Cc1cc(C)cc(OCC(=O)OCC(=O)NC2CC2)c1 | – | inactive: 1.5%
Cc1ccc(NC(=S)c2nc3ccccc3[nH]2)cc1 | inconclusive [inhibitor, partial curve] | –
COc1cccc(CNc2nc(NC(C)C)nc3ccsc23)c1 | – | inactive: -17.8%
Cc1oc2c(F)c(F)c(F)c(F)c2c1S(=O)(=O)Nc1cccc(C(F)(F)F)c1 | inconclusive [inhibitor, full curve] | –
O=P(c1ccccc1)(c1ccccc1)c1cc(S(=O)(=O)O)ccc1O | – | inactive: -3.17%
Cc1ccnc(NC(=O)c2cc3cc(F)ccc3s2)c1 | – | inactive: -11.9%

Compound | Potency | activity change, negative = inhibition
CCCCC[C@@H](/C=C/C1C(=O)C=C[C@H]1C/C=C\CCCC(=O)OC)OC(C)=O (some centres undefined) | inconclusive [inhibitor, partial curve] | –
O=C(NCc1cccs1)c1cc2c(s1)CS(=O)(=O)C2 | inconclusive [inhibitor, partial curve, poor fit] | –
CC(=O)c1cccc(N(CC(=O)Nc2cc(C)cc(C)c2)S(C)(=O)=O)c1 | inconclusive [inhibitor, single point] | –
Nc1nn(-c2ccccc2)c(N)c1N=Nc1ccc2c(c1)OCO2 | inconclusive [inhibitor, single point] | –
Cc1ccc(NC(=O)COC(=O)CSC(=S)N2CCOCC2)cc1C | inconclusive [inhibitor, single point] | –
O=S(=O)(Nc1ccc(-n2cccc2)cc1)c1ccc(F)cc1 | inconclusive [inhibitor, single point] | –
CCc1ccc(N2C(=O)Nc3ccc(Br)cc3C2(O)C(=O)NCCN(C)C)cc1 (centres undefined) | inconclusive [inhibitor, partial curve, poor fit] | –
CCc1nnc(NC(=O)C=C(C)C)s1 | – | inactive: -12%
Cc1ccc([C@@H]2CC=C(C(=O)O)[C@H](c3ccc(Br)cc3)N2S(=O)(=O)c2ccc(C)cc2)cc1 | – | inactive: -16%
CC(C)CC(=O)NC(=S)Nc1cc(C(F)(F)F)ccc1N1CCOCC1 | inconclusive [inhibitor, partial curve] | –
COc1ccccc1-c1nnc(NC(=O)CSc2nncn2C)s1 | – | inactive: 1.6%
O=C(COC(=O)C1CC1)Nc1ccc(OC(F)F)cc1 | – | inactive: -13%
COc1ccc(CCC(=O)N2CCN(S(=O)(=O)c3cccc(C(F)(F)F)c3)CC2)cc1OC | inconclusive [inhibitor, single point] | –
O=C(Nc1ccc(Oc2ccccc2)nc1)C1CCCCN1Cc1ccc(OCCO)cc1 (centres undefined) | inconclusive [inhibitor, single point] | –
COCc1nnc(NC(=O)c2ccc(OC)cc2OC)s1 | inconclusive [inhibitor, single point] | –
CC(=O)NNC(=O)CSc1nnc(-c2ccccc2)c(-c2ccccc2)n1 | inconclusive [inhibitor, single point] | –
COC(=O)C1=C(C)NC(=O)/C1=C/c1ccc(CNS(=O)(=O)c2ccc(C)cc2)o1 | inconclusive [inhibitor, partial curve] | –
Brc1ccccc1-n1nnc(-c2nccs2)n1 | inconclusive [inhibitor, single point] | –
Cc1ccc(Cc2c(-c3ccc(F)cc3)nc3cc(C)ccn23)cc1 | – | inactive: -6.71%
Cc1cc2c(cc1C)-n1nnnc1C(N(Cc1ccccc1)Cc1ccccc1)C(=O)N2 (centres undefined) | – | inactive: 1.83%
Cc1ccc(NC(=O)c2ccn(C)n2)c(Br)c1 | inconclusive [inhibitor, single point] | –
O=C(NC(=S)Nc1ccccn1)c1cc(-c2ccccc2)nc2ccccc12 | inconclusive [inhibitor, partial curve, poor fit] | –
CCN(CC)Cc1c(C(=O)N/N=C/c2cccc(OCc3ccc(F)cc3)c2)nnn1-c1nonc1N | inconclusive [inhibitor, full curve] | –

Compound | Potency | activity change, negative = inhibition
COc1cccc(CNS(=O)(=O)c2ccc3c(c2)CC(C)N3C(=O)C2CCC2)c1 (centres undefined) | inconclusive [inhibitor, partial curve, poor fit] | –
CCC1CCCN1Cn1cnc2c([nH]c3ccccc32)c1=O (centres undefined) | inconclusive [inhibitor, partial curve] | –
O=C(CN1CCN(c2ccccc2F)CC1)c1ccc2cc[nH]c2c1 | inconclusive [inhibitor, single point] | –
NC(=O)c1ccc(Nc2nnc(-c3ccc(O)cc3)c3ccccc23)cc1 | inconclusive [inhibitor, partial curve] | –
N#Cc1c(-c2ccccc2)c(C#N)c2nc3ccccc3n2c1N | inconclusive [inhibitor, single point] | –
O=C(CCCN1C(=O)/C(=C/c2ccccc2)SC1=S)Nc1ccccc1O | inconclusive [inhibitor, single point] | –
CN1CCc2c(sc(NC(=O)CS(=O)(=O)c3ccc(F)cc3)c2C(N)=O)C1 | – | inactive: 8.79%
CCOC(=O)c1[nH]c(C)c(C(=O)NCc2ccc(OC)cc2)c1C | inconclusive [inhibitor, partial curve] | –
CC(NC(=O)CCl)c1ccccc1Br (centres undefined) | inconclusive [inhibitor, single point] | –
Cc1ccc(NC(=O)CN2C(=O)S/C(=C\c3cccn3-c3cccc(C(=O)O)c3)C2=O)cc1C | inconclusive [inhibitor, full curve] | –
O=C(N/N=C/c1cc(Cl)cc([N+](=O)[O-])c1O)c1ccccc1NS(=O)(=O)c1cccs1 | inconclusive [inhibitor, partial curve] | –
O=C1CCCCN1CCCC(=O)N1CCCC(Nc2ccc(F)cc2)C1 (centres undefined) | inconclusive [inhibitor, full curve, poor fit] | –
O=C(CSc1nc(-c2ccccc2)nc2c1Cc1ccccc1O2)Nc1ccc(C(=O)O)cc1 | inconclusive [inhibitor, full curve] | –
O=c1cc(CSc2nc3ccccc3c(=O)[nH]2)c2ccc(O)cc2o1 | active: 50.1 µM | –
O=C(CC(Nc1ccccc1Cl)C(=O)O)c1ccccc1 (centres undefined) | – | inactive: 3.76%
C/C(=N/n1cnnc1)c1cccnc1 | – | inactive: -4.96%
CC(C(=O)N1CCc2ccccc21)N1CCN(c2cccc(C(F)(F)F)c2)CC1 (centres undefined) | inconclusive [inhibitor, full curve, poor fit] | –
O=C1c2ccsc2SCCN1Cc1ccccc1 | inconclusive [inhibitor, full curve, poor fit] | –
CC(Sc1ccccc1)C(=O)NNC(=O)c1csc(N2CCOCC2)n1 (centres undefined) | inconclusive [inhibitor, partial curve] | –
Cc1cccc(/C=N/N2CCN(c3ccccc3)CC2)c1 | – | inactive: -11.7%
CC(=O)OCCNc1cc(SCc2ccco2)c2nonc2c1[N+](=O)[O-] | inconclusive [inhibitor, partial curve, poor fit] | –
CC1(C)Oc2ccc3ccc(=O)oc3c2[C@@H](O)[C@H]1O | inconclusive [inhibitor, single point] | –
CC(C)(C)N1CC(c2nc3ccccc3n2Cc2ccc(Cl)cc2)CC1=O (centres undefined) | – | inactive: -20.7%
